# This is one part of the list.
# What was measured:
# Assay in all cases: glycan array binding signal (z-score within array); higher = stronger binding
# Settings in all cases: glycan notation: IUPAC condensed, linker removed
# [1] = target: Neu5Ac9Ac(a2-6)Gal(b1-4)GlcNAc
# Outline: (§1)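 Glycan array data were curated from 3228 arrays in the Consortium for Functional Glycomics database and kept only where the protein sequence was available. Glycan names were converted to IUPAC-condensed notation, and columns mapping to the same glycan were averaged. The binding signal is a within-array Z-score, averaged across arrays of the same protein sequence at different concentrations or buffers and across linkers. Negative Z-scores can be read as non-binding.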
# [2] = target: Neu5Gc(a2-3)Gal(b1-3)GlcNAc
# Outline: as §1
# [3] = target: Neu5Gc(a2-3)Gal(b1-3)[Fuc(a1-4)]GlcNAc
# Outline: as §1
# Neu5Gc(a2-3)Gal(b1-4)Glc = target: Neu5Gc(a2-3)Gal(b1-4)Glc
# Outline: as §1
# [4] = target: Neu5Gc(a2-3)Gal(b1-4)GlcNAc
# Outline: as §1
# [5] = target: Neu5Gc(a2-3)Gal(b1-4)GlcNAc(b1-3)Gal(b1-4)GlcNAc(b1-2)Man(a1-3)[Neu5Gc(a2-3)Gal(b1-4)GlcNAc(b1-3)Gal(b1-4)GlcNAc(b1-2)Man(a1-6)]Man(b1-4)GlcNAc(b1-4)GlcNAc
# Outline: as §1
# [6] = target: Neu5Gc(a2-3)Gal(b1-4)[Fuc(a1-3)]GlcNAc
# Outline: as §1
# [7] = target: Neu5Gc(a2-6)Gal(b1-4)GlcNAc
# Outline: as §1
# Neu5Gc(a2-6)GalNAc = target: Neu5Gc(a2-6)GalNAc
# Outline: as §1
# [8] = target: Neu5Gc(a2-8)Neu5Ac(a2-3)Gal(b1-4)GlcNAc
# Outline: as §1
# [9] = target: Neu5Gc(a2-8)Neu5Gc(a2-3)Gal(b1-4)GlcNAc
# Outline: as §1
# [10] = target: Neu5Gc(a2-8)Neu5Gc(a2-3)Gal(b1-4)GlcNAc(b1-3)Gal(b1-4)GlcNAc
# Outline: as §1
# [11] = target: Neu5Gc(a2-8)Neu5Gc(a2-6)Gal(b1-4)GlcNAc
# Outline: as §1
# [12] = target: Neu5Gc(b2-6)Gal(b1-4)GlcNAc
# Outline: as §1
binder,measurement,setting,value
HHA (Hippeastrum hybrid) (protein) MQQDCNLVLYDVDKPIWASNTGGLARDCHLNMQSDGNLVVYAPRNQVIWASNTQGENGNYVCILQKDRNVVIYGTARWATGTNIHGAGIVGVPGSAPQNTTAEMIKLVRKYLITK,glycan array binding signal (z-score),[1],-0.225
same,glycan array binding signal (z-score),[2],-0.213
same,glycan array binding signal (z-score),[3],-0.218
same,glycan array binding signal (z-score),Neu5Gc(a2-3)Gal(b1-4)Glc,-0.212
same,glycan array binding signal (z-score),[4],-0.145
same,glycan array binding signal (z-score),[5],-0.194
same,glycan array binding signal (z-score),[6],-0.2
same,glycan array binding signal (z-score),[7],-0.211
same,glycan array binding signal (z-score),Neu5Gc(a2-6)GalNAc,-0.201
same,glycan array binding signal (z-score),[8],-0.211
same,glycan array binding signal (z-score),[9],-0.213
same,glycan array binding signal (z-score),[10],-0.218
same,glycan array binding signal (z-score),[11],-0.219
same,glycan array binding signal (z-score),[12],-0.206
